Source: the supplement of paper PMC10441789
This is one part of the list. Antibody binding of pooled human sera (four to six donors per pool; dilution not stated) to peptides of the Trypanosoma cruzi antigen TSSA on microarrays. Quantile-normalised fluorescence in arbitrary units, mean of duplicate arrays; higher = more binding. No active / inactive call. The uninfected pools are read here as the healthy donors of the same country. The strongest signals lie near the top of the scale (about 60,000).

Assays:
Test in all cases: antibody binding signal (normalised fluorescence) (arbitrary fluorescence units); higher = stronger serum antibody binding to peptide
[1] = system: pooled sera of chronic Chagas disease patients, Argentina
Method: (§1)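 Microarray of 15-residue peptides over residues 30-55 of Trypanosoma cruzi TSSAII, each with 1 to 10 substitutions at naturally variable positions, probed with one serum pool per country.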

[2] = system: pooled sera of chronic Chagas disease patients, Bolivia
Method: as §1

[3] = system: pooled sera of chronic Chagas disease patients, Brazil
Method: as §1

[4] = system: pooled sera of chronic Chagas disease patients, Colombia
Method: as §1

[5] = system: pooled sera of chronic Chagas disease patients, Mexico
Method: as §1

[6] = system: pooled sera of chronic Chagas disease patients, USA
Method: as §1

[7] = system: pooled sera of uninfected people, Argentina
Method: as §1

[8] = system: pooled sera of uninfected people, Bolivia
Method: as §1

[9] = system: pooled sera of uninfected people, Brazil
Method: as §1

[10] = system: pooled sera of uninfected people, Mexico
Method: as §1

[11] = system: pooled sera of uninfected people, USA
Method: as §1

Sequence	antibody binding signal [1]	antibody binding signal [2]	antibody binding signal [3]	antibody binding signal [4]	antibody binding signal [5]	antibody binding signal [6]	antibody binding signal [7]	antibody binding signal [8]	antibody binding signal [9]	antibody binding signal [10]	antibody binding signal [11]
TPPSGKDKKTATGGA	1710	370	450	620	26600	630	284	295	103	85.9	163
SGTEKKPATGEAPSP	44700	47300	47100	392	316	38000	839	1080	703	224	356
GTDKKTATGGAPSQS	832	275	501	2590	1010	669	294	278	106	141	152
EKKTAAGGTPSPSGA	1230	258	223	9810	561	1880	195	731	1050	171	647
TENKPATGGTPSPPG	47300	1930	3120	254	1120	676	377	765	524	239	212
PSGTDNKPATGGAPS	33500	22600	44000	5120	1010	8440	319	1410	1260	650	320
STPPSGTENKPAAGG	49800	50800	52800	411	6090	50800	8780	1570	865	1160	1160
GTENKTAAGGAPSQS	27500	626	763	5190	1150	666	440	370	742	506	176
KEKKAATGGAPSPPG	417	231	191	485	387	685	213	140	116	69.8	122
NKTAAGGTPSPSGAS	1630	280	5120	6170	780	1660	667	967	944	833	1330
PPSGKDKKTAAGGAP	932	393	646	4530	25900	1570	215	456	114	120	196
PPSGTDKKPAAGGAP	20700	3830	38700	14600	48600	2840	1040	767	311	2400	569
DNKTATGEAPSPSGA	14800	35700	16300	290	284	11900	222	153	255	131	132
TEKKTAAGETPSQPG	858	2300	26600	501	447	3800	122	437	400	272	244
GTENKTAAGGTPSQP	39000	1150	740	5780	825	1720	449	365	781	2830	161
DNKAAAGETPSQSGA	306	542	15100	143	136	286	88.2	318	159	416	99
KDNKTAAGGAPSQSG	414	208	293	3090	247	276	298	140	193	76.8	120
GKEKKPAAGGTPSPS	2870	207	268	2460	1710	1520	92.1	84.1	551	74.8	284
TPPSGTDNKAAAGGA	31200	39300	47300	3920	5780	10200	1610	767	2180	362	2050
KENKAAAGGAPSPSG	131	192	208	1210	149	364	161	73.1	86.7	89.3	110
TDNKAATGGAPSPPG	501	518	2030	497	370	1660	277	316	264	145	129
PPSGKDNKAAAGGTP	794	238	1110	1300	3140	2750	272	438	291	88	155
NKPATGEAPSPPGAS	26400	44200	47000	447	202	40000	1240	1560	701	243	1360
GKENKPAAGEAPSQS	5170	7340	30600	6860	7370	20600	797	353	133	280	101
DKKTAAGGAPSQSGA	401	334	215	5120	582	415	176	141	167	329	124
GKEKKTAAGEAPSPP	2020	524	461	2320	2420	5360	136	104	83.8	97.3	125
GTDNKPATGEAPSQS	47000	48200	50100	1520	259	47200	928	1010	500	419	146
